Article PMC4336329 (PLoS ONE, 2015)
Screen size: about 310,000 compounds; about 2,200 (0.71%) showed an effect of 50% or more. Effects have a minus sign here. The list shows a part of the results.

molecular target: human ether-à-go-go-related gene (hERG) potassium channel (human, UniProt Q12809); experiment: primary screen, population patch clamp on CHO cells stably expressing hERG
Sequence (Q12809 whole entry, looked up): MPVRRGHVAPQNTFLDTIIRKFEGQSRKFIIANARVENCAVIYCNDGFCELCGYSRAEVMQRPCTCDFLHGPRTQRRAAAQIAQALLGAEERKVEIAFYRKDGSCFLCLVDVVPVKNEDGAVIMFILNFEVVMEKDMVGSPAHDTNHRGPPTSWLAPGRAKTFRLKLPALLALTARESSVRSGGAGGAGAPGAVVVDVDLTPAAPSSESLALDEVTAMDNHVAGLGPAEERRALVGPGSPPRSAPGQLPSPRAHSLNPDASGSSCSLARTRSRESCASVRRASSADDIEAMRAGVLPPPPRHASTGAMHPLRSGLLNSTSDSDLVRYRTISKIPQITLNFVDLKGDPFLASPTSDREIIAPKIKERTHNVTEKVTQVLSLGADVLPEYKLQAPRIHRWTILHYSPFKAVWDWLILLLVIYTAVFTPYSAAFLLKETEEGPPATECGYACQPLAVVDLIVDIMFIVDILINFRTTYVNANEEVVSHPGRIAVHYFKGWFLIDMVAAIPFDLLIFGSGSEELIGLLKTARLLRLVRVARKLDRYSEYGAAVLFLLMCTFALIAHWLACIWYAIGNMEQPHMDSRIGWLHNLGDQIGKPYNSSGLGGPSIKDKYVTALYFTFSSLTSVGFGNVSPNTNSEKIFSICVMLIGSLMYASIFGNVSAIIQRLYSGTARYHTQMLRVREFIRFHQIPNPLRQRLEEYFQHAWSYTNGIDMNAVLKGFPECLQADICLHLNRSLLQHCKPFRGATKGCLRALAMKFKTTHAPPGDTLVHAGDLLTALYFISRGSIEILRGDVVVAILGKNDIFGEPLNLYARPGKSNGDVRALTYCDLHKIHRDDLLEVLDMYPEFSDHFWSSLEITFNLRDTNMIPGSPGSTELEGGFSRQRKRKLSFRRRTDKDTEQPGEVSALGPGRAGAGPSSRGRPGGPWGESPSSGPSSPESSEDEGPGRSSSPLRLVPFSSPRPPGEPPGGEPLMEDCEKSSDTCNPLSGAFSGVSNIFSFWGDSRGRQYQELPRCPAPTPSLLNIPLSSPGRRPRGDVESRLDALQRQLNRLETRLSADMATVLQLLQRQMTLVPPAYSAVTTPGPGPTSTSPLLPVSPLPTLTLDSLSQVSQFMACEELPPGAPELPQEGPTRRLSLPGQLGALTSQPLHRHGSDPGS

SMILES	hERG current change (%, negative = inhibition) at 1uM [%]
Cn1c(N)c(C(=O)COC(=O)c2ccc(Cl)c(S(=O)(=O)N3CCCC3)c2)c(=O)n(C)c1=O	4.99
O=C(NC1CC1)C(=O)c1c(-c2ccccc2)[nH]c2ccccc12	15.8
NC1=NC(c2ccccc2)N=C(Nc2ccccc2)N1 (stereo not drawn)	9.14
O=S1(=O)CCOC[C@H](Cc2ccccc2)N1Cc1ccccc1	-13.3
Cc1cc(=O)[nH]c(N/N=C/c2c(C)nn(-c3ccccc3Cl)c2Cl)n1	21.2
Cc1ccc(/C=N/NC(=O)c2n[nH]c3c2CCCC3)cc1	12.7
Cc1ccc(S(=O)(=O)Cn2nnnc2C(CC(C)C)N2CCN(C(=O)c3ccco3)CC2)cc1.Cl (stereo not drawn)	7.63
CCc1ccc(S(=O)(=O)N/N=C\c2ccc([N+](=O)[O-])o2)cc1	16
Cc1ccc2c(c1)/C(=C/c1ccccc1)C(=O)N2	15.6
Cn1c2ccccc2c2c(C(=O)N3CCN(C(=O)c4ccco4)CC3)cn(C3CCCCC3)c(=O)c21	11.5
O=C(COc1ccc(Cl)cc1)NCc1cn2cc(Cl)ccc2n1	-15.3
O=C(c1ccc(Br)cc1)N1CCC(C(=O)N2CCN(c3ccccc3)CC2)CC1	-34.5
CCOC(=O)c1c(NC(=O)Cn2nc(C(F)F)cc2C(F)F)sc(C)c1C	10.8
Cc1onc(-c2c(Cl)cccc2Cl)c1NC(=O)NNc1ccccn1	3.17
COc1ccc(NC(=O)CN(C)C(=O)c2cccc(S(=O)(=O)N3CCN(C)CC3)c2)cc1	5.65
COc1ccc(C2(C)NC(=O)N(CC3CCCCC3)C2=O)cc1 (stereo not drawn)	13.5
C[C@H]1C[C@@H](C)C(=O)[C@@H]([C@H](O)CC2CC(=O)NC(=O)C2)C1	14.5
COC(=O)COc1ccc2c(=O)c(-c3ccccc3)coc2c1	14.8
CCOC(=O)c1cc2cc([N+](=O)[O-])cc(OC)c2oc1=O	0.469
Cc1cc(C)n(-c2ccc(C(=O)NCc3ccc(F)cc3)cc2)n1	6.3
CC1(c2ccc3ccccc3c2)NC(=O)N(CC(=O)N2CCN(c3ccccc3O)CC2)C1=O (stereo not drawn)	7.63
CN1CCCN(C(=O)C2CCCCC2)CC1	3.96

SMILES	hERG current change (%, negative = inhibition) at 1uM [%]
O=P(c1ccccc1)(c1ccccc1)N1CCCCC1	7.03
Cc1csc(NC(=O)c2cnccn2)n1	8.71
Cc1c(C(=O)N2CCCC2)sc(NC(=O)c2ccc(Cl)cc2)c1C#N	12.8
CC1CCN(c2ccc(C(=O)Nc3nnc(C4CC4)s3)cc2[N+](=O)[O-])CC1	12.9
O=C(c1ccc(Cl)c(S(=O)(=O)NCc2ccccc2)c1)N1CCN(c2ccccn2)CC1	-14.8
COc1ccc(NC(=O)c2cc3nc(-c4ccccc4)cc(C)n3n2)cc1OC	8.61
Cn1c(=O)[nH]c(=O)c2c1nc(CN1CCN(c3ccccc3F)CC1)n2CCCc1ccccc1	-15.1
CCOC(=O)C1(CCOc2ccccc2)CCN(Cc2cccs2)CC1	-32.6
O=C(CSc1nnc2c(Cl)cc(C(F)(F)F)cn12)Nc1ccc2c(c1)OCO2	-0.381
O=c1ccc(Cc2ccccn2)n[nH]1	13.7
CCOC(=O)C1(c2ccccc2)CCN(CCC(C#N)(c2ccccc2)c2ccccc2)CC1.Cl	2.11
COC(=O)c1cc(=O)n(-c2c(Cl)cc(C(F)(F)F)cc2Cl)[nH]1	15.2
CC(C)CSc1nc2ccccc2n1CC(=O)O	16
COCCNC(=O)/C(C#N)=C/c1cc(Br)c(O)c(OC)c1	4.85
Cc1ccc(C(=O)NC2CCN(C(=O)NCc3ccccc3)CC2)cc1	8.62
O=C(Nc1cccc2c1C(=O)NC2=O)c1cccc(N2C(=O)CCC2=O)c1	1.98
O=C(CNC(=O)c1cccc(F)c1)N/N=C/c1cccs1	13.4
CCOc1ccc(-c2nc(-c3cccnc3)no2)cc1	5.19
O=S(=O)(Nc1ccc2c(c1)OCCO2)c1cnc[nH]1	9.67
O=C(C1CCCN(S(=O)(=O)c2ccccc2)C1)N1CCN(c2ccc(F)cc2)CC1 (stereo not drawn)	-62.4
CC(C)Oc1ccc(N2CC(C(=O)OCC(=O)NCc3ccccc3)CC2=O)cc1 (stereo not drawn)	-3.02
FC(F)(F)c1cccc(Cn2nnnc2-c2cc(Cl)cc(Cl)c2)c1	5.89

SMILES	hERG current change (%, negative = inhibition) at 1uM [%]
C=CCOC(=O)C1=C[C@H](c2coc3ccccc3c2=O)C[C@H](OCCCCO)O1	-4.32
CCOc1ccc(S(=O)(=O)N2CCC(C(N)=O)CC2)c2ccccc12	7.01
O=C(c1ccco1)N1CCN(C(=O)c2ccc(-c3ccc(Cl)cc3)o2)CC1	-67.5
CC1N/C(=C\C(=O)c2ccccc2)N(O)C1(C)C (stereo not drawn)	12.1
COCCNC(=O)CSc1nc2nc(C)cc(C)n2n1	20.6
CCN(CC)c1ccc(N2C(=O)/C(=C\c3cccs3)SC2=S)cc1	4.12
COc1ccc(CNS(=O)(=O)c2ccc(-n3cnnn3)c(OC)c2)cc1	-2.65
CN(c1ccccc1)S(=O)(=O)c1cccc(NC(=O)CCN2C(=O)C3CCCCC3C2=O)c1 (stereo not drawn)	6.87
O=C(NC1CCCC1)c1cc2cc(Br)ccc2o1	12.5
COc1ccc(CNC(=O)CCNS(=O)(=O)c2ccc3c(c2)oc(=O)n3C)cc1	21.5
COc1ccc(OCC(=O)N2CCN(C(C)C)CC2)cc1.O=C(O)C(=O)O	12.5
COc1ccc(NS(=O)(=O)c2ccc(C)c(C(=O)NC3CCN(Cc4ccccc4)CC3)c2)cc1	-0.81
CC(=O)N1CCN(C(=O)c2cccc(S(=O)(=O)NCc3ccccc3)c2)CC1	10.6
Cc1snc(SCc2ccc(F)cc2)c1C#N	8.67
COc1ccc(C(=O)C[n+]2cccc(Br)c2)cc1.[Br-]	12.5
Nc1c(C(=O)NCCc2ccccc2)c2nc3ccccc3nc2n1CCN1CCOCC1	6.94
Nc1c(C(=O)CSc2nc(-c3ccccc3)cs2)c(=O)[nH]c(=O)n1C1CC1	7.7
O=C(N/N=C/c1ccc(Cl)cc1Cl)c1n[nH]c2c1CCCC2	12.1
COc1cccc(OC)c1/C(O)=C(\C#N)c1nc2ccccc2[nH]1	-1.83
Cc1ccc2nc(C)c(C(=O)O)cc2c1	17.2
CSCCC(C)N1CCC(Oc2ccc(C(=O)N3CCCC3)cc2)CC1 (stereo not drawn)	-0.954
CCOC(=O)c1cc(-c2ccncc2)nc2c1c(C)nn2C	-6.27

SMILES	hERG current change (%, negative = inhibition) at 1uM [%]
CC1(c2ccc(Cl)cc2Cl)NC(=O)N(CC(=O)Nc2ccc3[nH]c(=O)[nH]c3c2)C1=O (stereo not drawn)	7.86
O=C(CCCn1c(=S)[nH]c2ccsc2c1=O)NC1CCCCC1	19.1
O=C(/C=C/c1cccc(O)c1)c1cccnc1	7.55
O=C(NCCN1CCOCC1)c1ccccc1N1C(=O)[C@@H]2Cc3c([nH]c4ccccc34)C(c3ccc(F)cc3)N2C1=O (stereo partly drawn)	14.1
CCCN(CC(=O)Nc1ccccc1C)C(=O)C1CCN(c2ncnc3sc(C)c(C)c23)CC1	-56.5
Cc1ccnn1-c1ccc(C(=O)NCC(c2ccco2)N2CCCC2)cc1 (stereo not drawn)	3.01
CCOC(=O)[C@H]1[C@H]2COc3cc(OC)ccc3[C@@H]2N2C(=O)CN(CC3CCCO3)C(=O)[C@@]12C (stereo partly drawn)	12.5
Cc1ccc(CNS(=O)(=O)NCc2ccccc2F)cc1	10.2
Clc1cccc2sc(-c3nnc(-c4ccccc4)o3)c(Cl)c12	-4.27
CC1=C(C(=O)OCc2ccccc2)C(c2ccc(Cl)cc2)NC(=O)N1CCCC(=O)O (stereo not drawn)	7.53
O=C(NCc1ccco1)c1cccc(F)c1	9.88
COc1ccc(NC(=O)CN(C)C(=O)Cc2coc3cc(C)c(C)cc23)cc1	11
CCOc1ccc2nc(Nc3nc4ccc(NC(C)=O)cc4s3)sc2c1	14.7
C/C(=N/NS(=O)(=O)c1ccc(Cl)cc1)c1ccc2c(c1)OCO2	-2.82
COCc1cc(=O)[nH]c(-c2ccccc2)n1	9.15
O=C(NC1CCN(S(=O)(=O)c2ccc(Cl)c(F)c2)CC1)c1cccnc1	2.43
[Br-].c1ccc(Cc2cc[n+](Cc3ccccn3)cc2)cc1	8.57
COCCn1cc(C(=O)NCCCOC(C)C)c2c3ccccc3n(C)c2c1=O	11.8
O=C(CSc1nnc(-c2c[nH]c3ccccc23)o1)N(Cc1ccccc1)c1ccc(F)cc1	15.3
NC(=S)C(c1ccccc1)c1ncc(C(F)(F)F)cc1Cl (stereo not drawn)	9.32
CCOc1cccc2sc(N(CCCN(C)C)C(=O)c3ccc(S(=O)(=O)N4CCCCCC4)cc3)nc12.Cl	12.8
